# Source: article PMC4336329 (PLoS ONE, 2015)
# About 14,000 (4.5%) of roughly 310,000 compounds showed an effect of 50% or more. Effects have a minus sign here. The list shows a part of the results.
# Molecular target: human ether-à-go-go-related gene (hERG) potassium channel (human, UniProt Q12809)
# Assay: primary screen, population patch clamp on CHO cells stably expressing hERG
# 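Also: peak tail current of the secondary pulse compared with the same well before compound.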
# Chain of human ether-à-go-go-related gene (hERG) potassium channel (Q12809 whole entry, looked up): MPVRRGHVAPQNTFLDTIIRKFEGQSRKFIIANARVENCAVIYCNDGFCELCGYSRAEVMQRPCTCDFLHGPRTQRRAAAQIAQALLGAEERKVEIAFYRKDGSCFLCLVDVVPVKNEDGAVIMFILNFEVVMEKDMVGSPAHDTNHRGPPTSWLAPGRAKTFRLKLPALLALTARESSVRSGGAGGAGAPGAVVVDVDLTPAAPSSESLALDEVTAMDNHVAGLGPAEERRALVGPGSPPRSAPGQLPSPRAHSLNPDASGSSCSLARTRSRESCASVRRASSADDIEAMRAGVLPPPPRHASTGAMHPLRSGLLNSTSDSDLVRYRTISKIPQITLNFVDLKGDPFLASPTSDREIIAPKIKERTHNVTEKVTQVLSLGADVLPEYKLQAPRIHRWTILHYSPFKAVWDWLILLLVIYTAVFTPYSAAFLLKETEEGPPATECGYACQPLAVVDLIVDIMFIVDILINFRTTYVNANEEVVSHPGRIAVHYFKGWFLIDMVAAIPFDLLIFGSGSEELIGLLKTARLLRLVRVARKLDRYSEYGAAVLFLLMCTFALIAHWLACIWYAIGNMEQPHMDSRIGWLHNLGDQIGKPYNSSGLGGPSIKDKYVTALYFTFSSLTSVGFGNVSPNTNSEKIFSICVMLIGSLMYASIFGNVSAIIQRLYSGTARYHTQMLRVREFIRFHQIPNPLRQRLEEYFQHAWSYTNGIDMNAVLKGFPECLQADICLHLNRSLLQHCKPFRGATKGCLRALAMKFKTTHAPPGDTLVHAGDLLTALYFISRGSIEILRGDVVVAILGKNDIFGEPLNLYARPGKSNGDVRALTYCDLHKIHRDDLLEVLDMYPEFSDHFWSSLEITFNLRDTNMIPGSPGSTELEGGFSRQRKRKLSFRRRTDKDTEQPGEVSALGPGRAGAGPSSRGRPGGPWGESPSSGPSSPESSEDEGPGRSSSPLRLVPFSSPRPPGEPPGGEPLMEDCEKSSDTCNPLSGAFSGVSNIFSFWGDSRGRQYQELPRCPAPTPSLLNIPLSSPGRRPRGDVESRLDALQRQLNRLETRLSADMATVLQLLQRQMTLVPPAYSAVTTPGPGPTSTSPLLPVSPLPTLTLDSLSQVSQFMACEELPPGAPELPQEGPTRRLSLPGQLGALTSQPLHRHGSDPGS
row,Structure (SMILES),"hERG current change (%, negative = inhibition) at 10uM [%]"
1,CCCOc1ccc(Cc2nc(N)nc(N)n2)cc1,5.56
2,CN(CC(=O)Nc1ccccc1C(F)(F)F)C(=O)CC1OC(=O)c2ccccc21 (stereo not shown),9.27
3,COC(=O)c1ccc(C#Cc2ccccc2)o1,12.2
4,COc1ccccc1CN(C)C(C)C(=O)Nc1cccc(C(C)=O)c1 (stereo not shown),-12.2
5,NCC12CC3CC(C1)CC(CN)(C3)C2,1.08
6,CCOC(=O)N1CCN(CCC(=O)Nc2cccc(Cl)c2C)CC1.Cl,5.59
7,CC(C)(C)NC(=O)Cn1c(SCC(=O)NC2CC2)nc2ccccc21,4.14
8,N#Cc1ccccc1NC(=O)COC(=O)CCc1ccc(S(=O)(=O)N2CCCCC2)cc1,-5.4
9,O=C(CN(C(=O)c1ccc(Cl)cc1)N1C(=O)C2C3C=CC(C3)C2C1=O)c1cccs1 (stereo not shown),10.7
10,Cc1ccc(C(=O)N2CCc3ccccc32)cc1,-7.42
11,CCc1ccccc1OCC(=O)Nc1cccc(S(=O)(=O)NC2=NCCC2)c1,-0.499
12,COc1cc(C(=O)OC2C[C@H]3CC[C@@H](C2)N3C)ccc1O (stereo partly shown),-7
13,CCNc1nc(C)c(CN(C(C)=O)c2ccccc2)nc1C#N,-7.57
14,CCOc1ccc(NC(=O)CN(C)C(=O)CCSc2ccc(F)cc2)cc1OCC,-34.4
15,CC1CCCC(C)N1S(=O)(=O)c1ccc(Cl)cc1 (stereo not shown),-3.38
16,CCn1nnnc1SCC(=O)NCc1ccco1,13.2
17,O=C(O)CN1C(=O)CC(c2ccccc2)CC1=O,20.6
18,CC(=O)Nc1ccc(NC(=O)CSc2nnc(-c3ccc(NS(C)(=O)=O)cc3)n2C)cc1C,17.2
19,COCCn1c(-c2ccc(SC)cc2)nc2c1c(=O)[nH]c(=O)n2CC(C)C,-19.3
20,CN(/N=C/c1ccc(N(C)C)cc1)C1=NS(=O)(=O)c2ccccc21,20.6
21,COc1ccc(NC(=O)Cn2nc(C)c3ccccc3c2=O)cc1,-1.81
22,COc1ccc(C(=O)NCCC2=CCCCC2)cc1OC1CCN(C(C)C)CC1,-78.1
23,CC1CCCCN1C(=O)/C(=C\c1ccccc1)c1ccccc1 (stereo not shown),-17.4

row,Structure (SMILES),"hERG current change (%, negative = inhibition) at 10uM [%]"
1,Cc1cccc(OCCCC(=O)Nc2nc3ccccc3[nH]2)c1,18.9
2,O=S(=O)(NC(=S)NC1CCCCC1)c1ccccc1,20.1
3,N#Cc1ccc(OCC(=O)n2cc(C(=O)c3cc(Cl)cc(Cl)c3O)cn2)cc1,17.5
4,CCOC(=O)CCNC(=O)CCNC(=O)C(c1ccccc1)c1ccccc1,-9.62
5,O=C(c1ccc(Br)cc1)c1coc2ccc(O)cc12,-5.64
6,COc1ccccc1OCC(=O)N1CCN(C(=O)c2ccco2)CC1,-0.256
7,CN(C)c1cccc(C(=O)Nc2nc3ccccc3[nH]2)c1,-8.39
8,N#C/C=C1\Sc2ccccc2C(=O)N1CC(=O)N1CCN(S(=O)(=O)c2ccccc2)CC1,-3.58
9,CCNC(=O)NCCc1c[nH]c2ccc(Cl)cc12,-14.6
10,COC(=O)c1ccc(Cl)c(NC(C)=O)c1,5.86
11,COc1ccc(N2CCN(CC(O)COCCOc3ccc(Br)cc3)CC2)cc1.Cl (stereo not shown),-69.1
12,Cc1ccc(C(=O)Oc2cccnc2)cc1[N+](=O)[O-],0.932
13,CC(C)C(=O)N1CCN(c2ccc(NC(=O)c3cccs3)cc2Cl)CC1,-14.7
14,COC(=O)c1sccc1NC(=S)Nc1ccccc1,-5.93
15,CSc1ccccc1NC(=O)c1ccc(C)o1,-13.2
16,CCCCc1nc2cc(C(=O)N3CCCCC3CCO)ccc2o1 (stereo not shown),10.1
17,O=C(Nc1ccccc1)/C(=C\c1ccccc1)NC(=O)c1ccco1,9.26
18,CC(=O)N/C(=C\c1cccc([N+](=O)[O-])c1)C(=O)NC(C)C,2.75
19,Cc1ccc(-c2csc3ncn(CC(=O)O)c(=O)c23)cc1C,11.8
20,Cc1ccc(S(=O)(=O)N2CCC(c3nnc(SCCN4CCCC4)n3C)CC2)cc1,17.7
21,CCOc1cc(C2c3c(oc4ccccc4c3=O)C(=O)N2c2nccs2)ccc1O (stereo not shown),-4.25
22,Cc1cc(C(=O)OCC(=O)c2ccc(Br)s2)no1,0.238
23,COc1ccc(NC(=O)C2CCN(c3nc(C)nc4c3CCC4)CC2)cc1,-42.4
